# Data: the supplement of paper PMC4604168 (melanoma cell lines)
# This is one part of the list. Single values are uncertain, as repeats are few or missing.
# Legend:
# Test in all cases: cell count relative to DMSO control; melanoma cells; higher = more viable cells
# Conditions in all cases: library dose: low library concentration; 72 h
# COLO792 = test system: COLO792
# COLO800 = test system: COLO800
# COLO829 = test system: COLO829
# G361 = test system: G361
# IPC-298 = test system: IPC-298
# IST-MEL1 = test system: IST-MEL1
# LB2518-MEL = test system: LB2518-MEL
# LOXIMVI = test system: LOXIMVI
# MEL-HO = test system: MEL-HO
# 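Also: cell number obtained by counting DAPI-stained nuclei in high-throughput microscope images with image analysis software, screen run in 1,536-well plates.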
Structure (SMILES),cell count (COLO792) [%],cell count (COLO800) [%],cell count (COLO829) [%],cell count (G361) [%],cell count (IPC-298) [%],cell count (IST-MEL1) [%],cell count (LB2518-MEL) [%],cell count (LOXIMVI) [%],cell count (MEL-HO) [%]
"Cc1ccc(Nc2nccc(N(C)c3ccc4c(C)n(C)nc4c3)n2)cc1S(N)(=O)=O [Pazopanib] + O=C(Oc1ccc([N+](=O)[O-])cc1)N1CCC(C(O)(c2ccc3c(c2)OCO3)c2ccc3c(c2)OCO3)CC1 [JZL184] (first compound 0.4 µM, partner dose 1 µM)",106,74,115,104,88.2,102,97,56.4,97.5
"CC[C@]1(O)C[C@H]2CN(CCc3c([nH]c4ccccc34)[C@@](C(=O)OC)(c3cc4c(cc3OC)N(C=O)[C@H]3[C@@](O)(C(=O)OC)[C@H](OC(C)=O)[C@]5(CC)C=CCN6CC[C@]43[C@@H]65)C2)C1 [vincristine] + Cc1cc(SCc2sc(-c3ccc(C(F)(F)F)c(F)c3)nc2C)ccc1OCC(=O)O [GW0742] (first compound 0.0001 µM, partner dose 2 µM)",105,90.9,97.2,89.6,103,98.3,94.1,92.5,98.1
"O=c1[nH]nc(Sc2ncc([N+](=O)[O-])s2)n1-c1ccc2c(c1)OCCO2 + Cc1cc(SCc2sc(-c3ccc(C(F)(F)F)c(F)c3)nc2C)ccc1OCC(=O)O [GW0742] (first compound 0.2 µM, partner dose 2 µM)",106,102,130,101,114,95.3,139,94.4,106
"CC1(C)CCC(c2ccc(Cl)cc2)=C(CN2CCN(c3ccc(C(=O)NS(=O)(=O)c4ccc(N[C@H](CCN5CCOCC5)CSc5ccccc5)c(S(=O)(=O)C(F)(F)F)c4)cc3)CC2)C1 + O=C(Oc1ccc([N+](=O)[O-])cc1)N1CCC(C(O)(c2ccc3c(c2)OCO3)c2ccc3c(c2)OCO3)CC1 [JZL184] (first compound 0.4 µM, partner dose 1 µM)",50.9,122,119,90,95.1,70.6,98.7,43.9,77.1
"C[C@@H](Oc1cc(-c2cnn(C3CCNCC3)c2)cnc1N)c1c(Cl)ccc(F)c1Cl [Crizotinib] + C/C(O)=C(\C#N)C(=O)Nc1cc(Br)ccc1Br [LFM-A13] (first compound 0.2 µM, partner dose 2 µM)",97.4,135,95.1,90.5,98.4,102,96.7,117,99.6
"Cn1cnc2c(F)c(Nc3ccc(Br)cc3Cl)c(C(=O)NOCCO)cc21 [selumetinib] + Cc1cc(SCc2sc(-c3ccc(C(F)(F)F)c(F)c3)nc2C)ccc1OCC(=O)O [GW0742] (first compound 0.015 µM, partner dose 2 µM)",97.8,153,168,91.7,74.3,109,58.7,96.1,104
"O=C(/C=C/c1cccnc1)NCCCCC1CCN(C(=O)c2ccccc2)CC1 + Cc1cc(SCc2sc(-c3ccc(C(F)(F)F)c(F)c3)nc2C)ccc1OCC(=O)O [GW0742] (first compound 0.01 µM, partner dose 2 µM)",53.3,45.9,79.2,9.39,44.3,76.2,79.3,83.4,46.2
"CS(=O)(=O)CCNCc1ccc(-c2ccc3ncnc(Nc4ccc(OCc5cccc(F)c5)c(Cl)c4)c3c2)o1 [lapatinib] + Cc1cc(SCc2sc(-c3ccc(C(F)(F)F)c(F)c3)nc2C)ccc1OCC(=O)O [GW0742] (first compound 0.8 µM, partner dose 2 µM)",82.9,81.2,105,108,103,87.8,129,111,99
"NC(=O)c1ccc(N(C(N)=O)c2c(F)cccc2F)nc1-c1ccc(F)cc1F + O=C(Oc1ccc([N+](=O)[O-])cc1)N1CCC(C(O)(c2ccc3c(c2)OCO3)c2ccc3c(c2)OCO3)CC1 [JZL184] (first compound 0.4 µM, partner dose 1 µM)",93.2,91.2,99.9,85.6,99.2,103,91.9,134,96.5
"CS(=O)(=O)CCNCc1ccc(-c2ccc3ncnc(Nc4ccc(OCc5cccc(F)c5)c(Cl)c4)c3c2)o1 [lapatinib] + C/C(O)=C(\C#N)C(=O)Nc1cc(Br)ccc1Br [LFM-A13] (first compound 0.8 µM, partner dose 2 µM)",65.2,75.7,116,96.7,100,101,104,115,85.9
"Cn1sc(=O)n(Cc2ccccc2)c1=O + Cc1cc(SCc2sc(-c3ccc(C(F)(F)F)c(F)c3)nc2C)ccc1OCC(=O)O [GW0742] (first compound 0.4 µM, partner dose 2 µM)",96.9,91.3,115,113,97.8,94.2,90.8,94.4,101
"NC1(c2ccc(-c3nc4ccn5c(=O)[nH]nc5c4cc3-c3ccccc3)cc2)CCC1 + Cc1cc(SCc2sc(-c3ccc(C(F)(F)F)c(F)c3)nc2C)ccc1OCC(=O)O [GW0742] (first compound 0.4 µM, partner dose 2 µM)",80.3,108,110,86.2,98.2,85.4,88.6,107,99.4
"Nc1ncn([C@H]2C[C@H](O)[C@@H](CO)O2)c(=O)n1 [decitabine] + Cc1cc(SCc2sc(-c3ccc(C(F)(F)F)c(F)c3)nc2C)ccc1OCC(=O)O [GW0742] (first compound 0.1 µM, partner dose 2 µM)",87.3,90.4,83.3,99.3,70.7,90,97,108,83.1
"Cc1cn(-c2cc(NC(=O)c3ccc(C)c(Nc4nccc(-c5cccnc5)n4)c3)cc(C(F)(F)F)c2)cn1 [nilotinib] + C/C(O)=C(\C#N)C(=O)Nc1cc(Br)ccc1Br [LFM-A13] (first compound 0.2 µM, partner dose 2 µM)",92.2,92.4,124,98.7,98,108,97.9,122,96
"O=C(O)[C@@H]1[O][Sb](=[O])([O][Sb]2(=[O])[O][C@H]([C@H](O)CO)[C@H](O)[C@H](C(=O)O)[O]2)[O][C@H]([C@H](O)CO)[C@@H]1O (stereo partly drawn) [stibogluconate] + O=C(Oc1ccc([N+](=O)[O-])cc1)N1CCC(C(O)(c2ccc3c(c2)OCO3)c2ccc3c(c2)OCO3)CC1 [JZL184] (first compound 2 µM, partner dose 1 µM)",96.8,87.9,112,113,96.2,96.7,93.6,109,90.5
"CS(=O)(=O)c1ccc(C(=O)Nc2ccc(Cl)c(-c3ccccn3)c2)c(Cl)c1 [vismodegib] + C/C(O)=C(\C#N)C(=O)Nc1cc(Br)ccc1Br [LFM-A13] (first compound 1 µM, partner dose 2 µM)",99.7,103,103,100,106,97.7,107,57,98.2
"CC(=O)c1c(C)c2cnc(Nc3ccc(N4CCNCC4)cn3)nc2n(C2CCCC2)c1=O [palbociclib] + O=C(Oc1ccc([N+](=O)[O-])cc1)N1CCC(C(O)(c2ccc3c(c2)OCO3)c2ccc3c(c2)OCO3)CC1 [JZL184] (first compound 0.04 µM, partner dose 1 µM)",62.6,95.8,90.7,89.6,92.1,81.7,85.8,65.6,107
"C[C@]1(O)C[C@@H](c2nc(-c3ccc4ccc(-c5ccccc5)nc4c3)c3c(N)nccn32)C1 + Cc1cc(SCc2sc(-c3ccc(C(F)(F)F)c(F)c3)nc2C)ccc1OCC(=O)O [GW0742] (first compound 0.4 µM, partner dose 2 µM)",104,76.5,87.9,92.7,105,98.4,95.3,117,83.1
"NC(=O)c1ccc(N(C(N)=O)c2c(F)cccc2F)nc1-c1ccc(F)cc1F + C/C(O)=C(\C#N)C(=O)Nc1cc(Br)ccc1Br [LFM-A13] (first compound 0.4 µM, partner dose 2 µM)",87.1,110,93.8,104,97.1,92.7,99.7,107,108
"C[C@]1(O)C[C@@H](c2nc(-c3ccc4ccc(-c5ccccc5)nc4c3)c3c(N)nccn32)C1 + C/C(O)=C(\C#N)C(=O)Nc1cc(Br)ccc1Br [LFM-A13] (first compound 0.4 µM, partner dose 2 µM)",85.7,31,84.5,80.5,88.1,93.9,86.1,95.1,98.9
"COc1ccc(C2=N[C@@H](c3ccc(Cl)cc3)[C@@H](c3ccc(Cl)cc3)N2C(=O)N2CCNC(=O)C2)c(OC(C)C)c1 [Nutlin-3] + C/C(O)=C(\C#N)C(=O)Nc1cc(Br)ccc1Br [LFM-A13] (first compound 0.1 µM, partner dose 2 µM)",95.1,73.8,99.5,91.9,101,112,81,87.4,94.1
"CC1(C)CCC(c2ccc(Cl)cc2)=C(CN2CCN(c3ccc(C(=O)NS(=O)(=O)c4ccc(N[C@H](CCN5CCOCC5)CSc5ccccc5)c(S(=O)(=O)C(F)(F)F)c4)cc3)CC2)C1 + C/C(O)=C(\C#N)C(=O)Nc1cc(Br)ccc1Br [LFM-A13] (first compound 0.4 µM, partner dose 2 µM)",54.4,80.2,91.8,88.3,97.4,73.3,87.9,77.7,61
